# According to PubChem BioAssay AID2675 (National Center for Advancing Translational Sciences (NCATS), 2010):
# The whole screen tested about 280,000 compounds, of which about 100 (0.036%) were called active. Inconclusive means that the source gave no clear call. Such entries were picked first, then a sample of the others. The call rests on the fitted dose curve; in most records, active means well fitted inhibition curve with a large enough effect in the signal ratio, with a control signal flat (not every such curve was filed as active); inconclusive means small, poorly fitted or top-dose-only effect, or effect the other way, or a change in a side signal; inactive means no such curve, though single readings can be large or run the other way; the % refers to the signal ratio. Potencies beside an inconclusive call are fits to weak or partial responses and may not hold up. A note “side channel” means that the fit belongs to a control or component signal, not to the main read-out.
# Molecular target: Muscleblind-like protein 1 (Homo sapiens) (UniProt Q9NR56)
# Assay: qHTS Assay for Inhibitors of MBNL1-poly(CUG) RNA binding
# Settings: TR-FRET MBNL1-His/biotin-(CUG)12 binding, 665/545 ratio; activity change, negative = inhibition: at 57.5 µM (top of the series)
# Procedure, shortened: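 TR-FRET between His-tagged MBNL1 and biotin-(CUG)12 RNA, detected with Tb anti-His antibody (0.055 ng/ul) and streptavidin-XL665 (5 nM), 60 min at room temperature. Compounds titrated 92 nM to 58 uM; 665/545 nm ratio normalized to buffer and complex controls.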
# On the % scale 0 is the no-effect control and ±100 the full control effect; potency means the concentration at half of the fitted maximal effect; tags describe the fitted curve by direction and shape or compound fluorescence and quenching.
# UniProt Q9NR56, sequence (Q9NR56 whole entry, looked up): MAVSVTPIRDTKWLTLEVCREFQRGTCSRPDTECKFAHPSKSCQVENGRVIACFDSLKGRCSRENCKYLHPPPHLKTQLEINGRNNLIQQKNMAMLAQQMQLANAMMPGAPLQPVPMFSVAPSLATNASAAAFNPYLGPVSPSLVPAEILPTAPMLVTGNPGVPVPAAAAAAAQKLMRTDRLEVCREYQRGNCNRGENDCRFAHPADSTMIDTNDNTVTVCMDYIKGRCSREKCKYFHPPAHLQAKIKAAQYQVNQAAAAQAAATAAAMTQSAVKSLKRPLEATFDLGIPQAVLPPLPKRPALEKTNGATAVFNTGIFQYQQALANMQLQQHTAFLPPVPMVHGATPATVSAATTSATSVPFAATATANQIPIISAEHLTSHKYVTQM
SMILES,Potency,"activity change, negative = inhibition"
O=C(NNC(=S)NCC1CCCO1)c1cc(Br)ccc1Cl (stereo not given),inactive,–
CCOC(=O)N1CCC(NC(=O)CC2C(=O)NCCN2Cc2cccc(F)c2F)CC1 (stereo not given),inactive,–
CCOc1ccccc1CNc1ccc(O)cc1,"inconclusive: 17.8 µM [quencher, side channel, partial curve]",–
COC(=O)c1ccc(N)cc1O,inactive,–
CCOC(=O)CSc1nc(N)c(C(=O)Nc2ccc(N(C)C)cc2)s1,"inconclusive: 15.8 µM [quencher, side channel, partial curve]",–
O=C(Nc1nnc(-c2ccco2)o1)c1ccc([N+](=O)[O-])s1,"inconclusive: 3.98 µM [quencher, side channel, full curve]",–
S=C(NCc1ccccc1)Nc1cccc(Cl)c1,inactive,–
O=[N+]([O-])c1ccccc1/C=C/CN1CCN(Cc2ccc3c(c2)OCO3)CC1,"inconclusive: 35.5 µM [quencher, side channel, single point]",–
O=C(COC(=O)COc1ccc(Cl)cc1Cl)Nc1cccnc1Cl,"inconclusive: 28.2 µM [fluorescent, side channel, partial curve, poor fit]",–
COc1ccccc1N1C(=O)c2ccc(C(=O)Nc3ccc(F)cc3)cc2C1=O,"inconclusive: 7.94 µM [quencher, side channel, partial curve]",–
Oc1[nH]c2ccc(Br)cc2c1N=NC(=S)NCC1CCCO1 (stereo not given),"inconclusive: 15.8 µM [quencher, side channel, partial curve]",–
CC(C)N(C(=O)COC(=O)c1ccc([N+](=O)[O-])cc1)c1ccccc1,"inconclusive: 3.16 µM [quencher, side channel, full curve]",–
Cc1cc(C)cc(NC(=O)c2ccc([N+](=O)[O-])o2)c1,"inconclusive: 12.6 µM [quencher, side channel, partial curve]",–
CCOC(=O)c1nnc2cc(C)nn2c1C,"inconclusive: 35.5 µM [quencher, side channel, single point]",–
O=C(/C=C/c1ccco1)NCc1ccc2c(c1)OCO2,"inconclusive: 11.2 µM [quencher, partial curve]",–
CC(Cl)C(=O)Nc1ncc(C(F)(F)F)cc1Cl (stereo not given),"inconclusive: 25.1 µM [quencher, side channel, single point]",–
CC(C)c1ccc(/C=C/C(=O)N2CCc3ccccc3C2)cc1,"inconclusive: 0.708 µM [fluorescent, side channel, partial curve]",–
COc1cccc(N2CC(C(=O)Nc3ccc(F)cc3)CC2=O)c1 (stereo not given),inactive,–
O=C1C(Cl)=C(NCC2CCCO2)C(=O)N1c1cccc(Cl)c1Cl (stereo not given),"inconclusive: 17.8 µM [quencher, side channel, partial curve]",–
C/C(=N\NC(=O)c1ccccn1)c1ccc(C(=O)O)s1,"inconclusive: 10 µM [quencher, side channel, partial curve]",–

SMILES,Potency,"activity change, negative = inhibition"
NCCCC[C@H]1NC(=O)[C@H](CCC(=O)O)NC(=O)c2cc([N+](=O)[O-])cc(I)c2OCC[C@@H](C(N)=O)NC1=O,"inconclusive: 17.8 µM [quencher, side channel, single point]",–
CC(=O)Nc1ccc(NC(=O)C2CCCN2C(=O)Nc2ccc(F)c([N+](=O)[O-])c2)cc1 (stereo not given),"inconclusive: 15.8 µM [quencher, side channel, partial curve]",–
COc1ccc(C(=O)c2sc(Nc3ccccc3)nc2N)cc1,inactive,–
COc1ccc(N=N/C(=C\O)C(=O)c2cccs2)cc1,"inconclusive: 12.6 µM [quencher, side channel, partial curve]",–
O=C(N/N=C/c1ccc([N+](=O)[O-])cc1)c1ccccc1OCc1ccccc1,"inconclusive: 3.98 µM [quencher, side channel, partial curve]",–
O=C(Nc1ccccc1C(F)(F)F)N1CCC(n2c(=O)[nH]c3ccccc32)CC1,"inconclusive: 39.8 µM [quencher, side channel, single point]",–
O=C(NCc1cccnc1)Nc1ccc(Cl)c(Cl)c1,"inconclusive: 79.4 µM [inhibitor, partial curve]",–
CN1C(=O)/C(=C/c2ccccc2OCc2ccc(F)cc2)N(C)C1=S,"inconclusive: 0.316 µM [fluorescent, side channel, partial curve]",–
CCCCc1ccc(S(=O)(=O)Nc2nnc(C)s2)cc1,"inconclusive: 398 µM [inhibitor, partial curve]",–
C/C(=N\Nc1cc(N2CCOCC2)nc(C)n1)c1cccc([N+](=O)[O-])c1,inactive,–
COc1cc(OC)c2ccc(=O)oc2c1C(CCN1CCCC(C)C1)c1ccc(N(C)C)cc1 (stereo not given),"inconclusive: 6.31 µM [fluorescent, side channel, single point]",–
Cc1c(N=Nc2ccc(O)cc2)c(=O)n(-c2ccccc2)n1C,"inconclusive: 15.8 µM [quencher, side channel, partial curve]",–
Cc1ccccc1CNc1ncnc2cc(Cl)ccc12,"inconclusive: 8.91 µM [fluorescent, side channel, full curve]",–
Cc1cccc(NC(=O)CN(C)S(=O)(=O)c2ccc(-c3ccc(=O)[nH]n3)s2)c1C,"inconclusive: 17.8 µM [quencher, side channel, partial curve]",–
COCCCn1c(-c2ccccc2)nc2ccccc2c1=O,inactive,–
Cc1ccc(NC(=O)CCC(=O)N/N=C/c2cc([N+](=O)[O-])ccc2O)cc1,inactive,–
O=C(c1ccc(Cl)s1)N1CCN(c2ccccc2)CC1,"inconclusive: 0.1 µM [fluorescent, side channel, full curve]",–
CCOC(=O)CN1C(=O)S/C(=C/c2ccco2)C1=O,"inconclusive: 12.6 µM [quencher, partial curve]",–
O=[N+]([O-])c1ccc2c(c1)C(O)n1ncnc1S2 (stereo not given),"inconclusive: 6.31 µM [quencher, side channel, partial curve]",–
O=C(NCC1CCCO1)c1ccc(COc2ccccc2Br)cc1 (stereo not given),–,inactive: 0.119% [at 11.5 µM]
